Source: patent US20040242700A1 (priority 2001, published 2004)

Experiments:
[1] = system: influenza A/Aichi/68 (H3N2) virus; format: in vivo, mice
[2] = system: influenza A/Aichi/68 (H3N2) virus; conditions: infected mice

Nc1c(Br)cc(Br)cc1CN[C@H]1CC[C@H](O)CC1 [ambroxol, 2-amino-3,5-dibromo-N-[trans-4-hydroxycyclohexyl] benzyl amine]
virus-proliferation (viral titer in BALF) ([1]; 10 mg/kg/day i.p.): significantly inhibited | virus-proliferation-inhibitory effect (viral titer in BALF) ([1]; 30 mg/kg/day i.p., compared with 10 mg/kg/day): inferior to that described above | pathological changes of the lungs (visual pulmonary lesions) ([2]; 10 mg/kg/day i.p., 4th day from infection): distinctly reduced | lesion-inhibitory effect (visual pulmonary lesions) ([2]; 30 mg/kg/day i.p., 4th day, compared with 10 mg/kg/day): lower than that specified above
